Experimental data: PubChem BioAssay AID1346428 (National Center for Advancing Translational Sciences (NCATS), 2018)
Hit rate of the full screen: of about 48,000 compounds, about 1,200 (2.5%) were called active. Inconclusive results (about 2%) are left out.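 How the source made its calls: active means activation of at least 60% and not above a set upper limit (about 1 call in 100 departs from these limits); inconclusive means activation of 40% to 60%, or above that upper limit; inactive means activation under 40%.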 This is one part of the list.

Target: Probable G-protein coupled receptor 32 (Homo sapiens) (UniProt O75388)
Assay: qHTS for Agonists of Human Resolvin D1 Receptor DRV1; further: 0% is about no effect
Details: CHO-K1 GPR32 beta-arrestin PathHunter luminescence, 90 min; at 76.9 µM; hits give high values; zero percent set by DMSO-only wells
Summary of the method: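 Engineered CHO-K1 line co-expressing GPR32-ProLink and EA-beta-arrestin. Compound treatment lasted 90 min at 37 °C. Luminescence was recorded after 1 h with substrate at ambient temperature, relative to DMSO basal wells.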

Chain of UniProt O75388 (O75388 whole entry, looked up): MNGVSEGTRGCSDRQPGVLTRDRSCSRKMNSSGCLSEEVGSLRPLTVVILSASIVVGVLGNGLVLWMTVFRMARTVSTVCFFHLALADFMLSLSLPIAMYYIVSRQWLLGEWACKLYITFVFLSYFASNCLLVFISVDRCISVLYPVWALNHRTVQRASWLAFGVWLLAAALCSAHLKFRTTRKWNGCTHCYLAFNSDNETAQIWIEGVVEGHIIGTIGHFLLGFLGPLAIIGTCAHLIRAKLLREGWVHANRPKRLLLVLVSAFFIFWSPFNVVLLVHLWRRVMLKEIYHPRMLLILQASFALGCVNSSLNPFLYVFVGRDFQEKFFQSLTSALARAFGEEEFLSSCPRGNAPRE

activation, inactive:
Cc1ccc(Cn2ccnc2SCC(=O)Nc2nnc(C)s2)cc1 -13.1%, Cc1ccc(-c2csc(=Nc3ccccc3)n2Cc2ccc3c(c2)OCO3)cc1 32.6%, O=C(CN(c1ccc(Cl)c(C(F)(F)F)c1)S(=O)(=O)c1ccccc1)Nc1cccnc1 35.5%, CCc1ccccc1NC(=O)CSc1nnc(-c2ccccc2)c(-c2ccccc2)n1 -17.7%, COc1cc(OC)cc(-c2cc3nc(C)c(CCC(=O)Nc4ccccc4OC)c(C)n3n2)c1 -3.22%, COCCNC(=O)Cn1c(=O)c2cccn2c2ccc(F)cc21 -14.8%, Cc1ccccc1C(=O)Nc1c(C(=O)Nc2cccc(F)c2)oc2ccccc12 0.197%, CCc1nnc(NC(=O)c2nc(SC)ncc2Cl)s1 -1%, NC(=O)CSc1nc2c(oc3ccccc32)c(=O)n1Cc1ccccc1 -8.72%, CCSc1oc(-c2cccs2)nc1S(=O)(=O)c1ccc(Br)cc1 -18.3%, OC[C@]1(O)OC[C@@H](O)[C@H](O)[C@@H]1O -5.95%, C[C@@H]1CCC[C@H](C)N1CCCC(O)(c1ccccc1)c1ccccn1 (stereo not given in full) -5.87%, CCOC(=O)c1c(-c2ccccc2)oc2ccc(N(C(C)=O)S(=O)(=O)c3ccccc3)cc12 -5.84%, O=C(NCc1ccc2c(c1)OCO2)c1ccc2c(c1)N(Cc1ccccc1F)C(=O)c1ccccc1S2=O (stereo not given) -26.5%, CCOc1ccc(Cn2nnc(C(=O)Nc3ccc(Cl)cc3)c2N)cc1 -0.209%, O=S(=O)(NCC(c1ccco1)N1CCN(c2ccccc2)CC1)c1ccccc1 (stereo not given) -33.8%, CCCN(C(=O)c1c(C)oc2ncnc(N3CCOCC3)c12)c1ccc(Cl)c(Cl)c1 -6.85%, Cc1cccn2c3c(c(=O)nc12)C(c1ccc(F)cc1)CC(=O)N3 (stereo not given) -6.19%, CCn1ccc2c(OCC(=O)Nc3ccc(C(C)=O)cc3)cccc2c1=O -6.7%, COc1ccccc1CNC(=O)c1cc2c(-c3ccc(Cl)cc3)nn(C)c2s1 -10.6%, CN(C1CCCCC1)S(=O)(=O)c1ccc2c(c1)c(=O)c(C(=O)NCc1ccc(F)cc1)cn2C -10.7%, COc1ccccc1CNC(=O)C1CCN(C(=O)c2sccc2-n2cccc2)CC1 -15.5%, COC(=O)c1cc2occc2n1CC(=O)Nc1ccc(C)cc1Cl -0.909%, CCOc1ccc(-c2nc(CSCC(=O)NCc3ccc(C)cc3)c(C)o2)cc1 -9.45%, COC(=O)c1cc(NC(=O)c2sc3ccccc3c2Cl)cc(C(=O)OC)c1 -3.8%, COc1ccc(CCNc2nc3cc(OC)c(OC)cc3c3nc(-c4ccccc4)nn23)cc1OC -0.774%, COc1ccc(-c2nn(-c3ccc(C)cc3)c3c2cnc2ccc(C)cc23)cc1OC -3.98%, Cc1ccc(C)c(-n2nnc(-c3nc(-c4ccccc4C)no3)c2C)c1 -5.13%, N[C@@H](CCC(=O)N[C@@H](CS)C(=O)NCC(=O)O)C(=O)O -56.9%, COc1cccc(NC(=O)c2cc3c(-c4ccc(Cl)cc4)nn(C)c3s2)c1 -5.94%, CC1=C(C(=O)O)N2C(=O)[C@@H](NC(=O)[C@H](N)C3=CCC=CC3)[C@H]2SC1 -29.3%, CCCN1CCN(CCCNC(=O)C(CC)n2nc(C)n3c(cc4occc43)c2=O)CC1 (stereo not given) -9.96%, Cc1coc2cc3oc(=O)c(CCC(=O)NCc4ccccc4Cl)c(C)c3cc12 5.02%, O=C(O)c1cccc(-n2cnc3cccnc32)c1 -2.2%, O=C(NCC(c1cccnc1)N1CCN(Cc2ccccc2)CC1)C(=O)Nc1cccc(Cl)c1 (stereo not given) -3.38%, CCC(C(=O)NC1CCCCC1)n1c(SCc2cccc(C)c2)nc2ccncc21 (stereo not given) -9.96%, Cn1c(C(=O)N2CCC(C(=O)NCCc3ccccc3)CC2)cc2sccc21 -7.55%, CCN(CC)CCNC(=O)c1cn(CC)c2ccc(S(=O)(=O)N(C)C3CCCCC3)cc2c1=O -7.48%, N#Cc1ccccc1CSc1nnc2ccc3ccccc3n12 -1.78%, COCc1c(Br)c(C)nc2sc3c(=O)n(-c4cccc(Br)c4)nnc3c12 -8.89%, Nc1ccc([N+](=O)[O-])cc1O -93.8%, CCN1C(=O)c2ccccc2S(=O)(=O)c2ccc(C(=O)NCc3ccc(OC)cc3)cc21 -25.4%, COc1cc(C(=O)NCCCCCC(=O)O)cc(OC)c1OC -24.2%, CC(NC(=O)c1ccco1)c1nc(-c2ccccc2)no1 (stereo not given) -29.2%, Cc1cc(=O)n(CC(=O)NC(C)c2ccccc2)c2c1c(C)nn2-c1cccc(F)c1 (stereo not given) -13.3%, Cc1ccc(C)c(N2CCN(S(=O)(=O)c3ccc(-c4coc(C)n4)cc3)CC2)c1 -0.886%, CCCCc1c(C)nc2c(-c3ccc(Cl)cc3)c(C)[nH]n2c1=O -27.4%, COc1cc(OC)cc(C(=O)Nc2ccc(-c3nc4cc(C(C)C)ccc4o3)cc2)c1 -11.6%, COc1ccc(C(=O)c2sc3nc(-c4ccc(C)cc4)cc(C(F)(F)F)c3c2N)cc1 -15.2%, COc1ccc(-n2cc(-c3ccc4c(c3)OCO4)n(CC(=O)Nc3cccc(C)c3C)c2=O)c(OC)c1 -7.27%, CCCCN(CCCNC(=O)c1cc(Nc2ccc(OC)cc2)nc2ccccc12)Cc1ccccc1 -17.4%, CCOC(=O)C(CC)n1nc(C)c2c(C)n(-c3ccc(C)cc3)nc2c1=O (stereo not given) -9.01%, O=S(=O)(Nc1ccc(F)c(Cl)c1)c1ccc(Br)s1 14.2%, Cc1ccc(S(=O)(=O)c2nc(S(=O)(=O)c3ccc(C)cc3)c(NCCCOC(C)C)s2)cc1 -19.5%, CCOC(=O)c1ccc(N2C(=O)c3n[nH]c(-c4cccs4)c3C2c2ccc(CC)cc2)cc1 (stereo not given) -17.2%, O=c1c(S(=O)(=O)c2ccccc2)cn(Cc2ccc(F)cc2)c2cc(N3CCOCC3)c(F)cc12 -28.5%, COc1cc2c3cc1Oc1cc(ccc1O)C[C@@H]1c4c(cc(OC)c(O)c4Oc4ccc(cc4)C[C@@H]3N(C)CC2)CC[N+]1(C)C 49.8%, COc1ccc(CCNC(=O)CCCn2c(=O)c3ccccc3n(Cc3ccccc3C#N)c2=O)cc1OC 19.7%, Cc1ccccc1-n1nc(CO)c(C(=O)NCC(c2ccccc2)c2ccccc2)n1 -26.1%, O=C(COCc1cc(-c2ccc(F)cc2)on1)Nc1cc(Cl)ccc1O 11.6%, CC(=O)C1=C(c2ccc(Cl)c(Cl)c2)N(C(C)=O)n2c(nnc2-c2ccccc2)S1 -15%, Nc1nonc1C(=O)NCCNCc1ccccc1F 13.7%, COc1cccc2cc(-c3nc(Nc4cccc(C)c4C)sc3C)c(=O)oc12 -34.6%, CC(=O)Nc1nonc1-c1nnc(SCC(=O)Nc2cc(Cl)ccc2C)n1C -14.7%, CC1(C)[C@H](C(=O)O)N2C(=O)C[C@H]2S1(=O)=O 9.79%, COc1cccc(C2C=C(c3ccccc3)Nc3c(C(=O)Nc4ccccc4)cnn32)c1OC (stereo not given) -12.3%, COc1cc(C(CC(=O)Nc2cccc(C(C)=O)c2)N2Cc3ccccc3C2=O)cc(OC)c1OC (stereo not given) 0.844%, CCOC(=O)c1c(NC(=O)/C=C/c2ccc(C)cc2)sc(C(C)=O)c1C -6.22%, O=C(COCc1cc(-c2cccs2)on1)N1CCN(c2ccc(F)cc2)CC1 -11%, CCOc1cccc(NC(=O)c2sc3nc(-c4ccc(F)cc4)ccc3c2N)c1 33.7%, CCSc1ncc(Cl)c(C(=O)N(Cc2ccccc2)c2ccc(OC)cc2)n1 -27%, COc1cc(CNCCSc2nnnn2C)ccc1OCc1ccc(C)cc1 0.146%, O=c1c(=O)n(-c2ccccc2)ccn1Cc1c(F)cccc1Cl -16.2%, COc1cc(C(=O)Nc2ccc(-n3c(C)nc4ccccc4c3=O)cc2)cc(OC)c1OC 14%, Cc1cc(C)cc(N2CC(c3nnc(NC(=O)c4ccco4)s3)CC2=O)c1 (stereo not given) -10.3%, Cc1nc2cccnc2n1C1CCN(C(=O)Nc2ccccc2)CC1 0.964%, O=C(c1ccccc1)N1CCCC(c2nc3c(nnn3Cc3ccc(F)cc3F)c(=O)[nH]2)C1 (stereo not given) -1.97%, Cc1ccc(-c2noc(-c3ccc(NCc4cccnc4)c([N+](=O)[O-])c3)n2)cc1 21.9%, CCCCn1c(=NC(=O)c2c(-c3c(F)cccc3Cl)noc2C)c(C(=O)OCC)cc2c(=O)n3ccccc3nc21 -5.72%, Cc1nc(-c2ccc(Cl)cc2)oc1COC(C)(C)C(=O)O 13.2%, O=c1c2oc3ccccc3c2n(Cc2ccc(F)cc2)c(=O)n1Cc1ccco1 -7.81%, O=C(NCc1cccc(F)c1)c1ccc(CN2CC(=O)N3CCCCC3C2=O)cc1 (stereo not given) 2.44%, CCOC(=O)C1CCN(C(c2ccc(OCC)cc2)c2c(O)cc(C)n(CCOC)c2=O)CC1 (stereo not given) -17.4%, COc1ccc(CNS(=O)(=O)c2cc(Br)cc3c2N(C(C)=O)C(C)C3)cc1 (stereo not given) 19.3%, Cc1ccc(-n2cnc3cc(C(=O)NCc4ccc(F)cc4)ccc32)c(C)c1 -2.5%
